# Some of the results follow.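 The calls were made as follows: active = more than 2 SD below the DMSO mean: under 0.85 at 10 µM or 0.885 at 1 µM; inactive = the rest.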 Single values are uncertain, as repeats are few or missing.
# System: RPE1
# Assay: nucleolar normality score relative to DMSO (fraction of DMSO control); RPE1 is a non-cancer human cell line; higher = more normal nucleoli (less nucleolar stress)
# Settings: 24 h
# 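Also: fixed cells immunolabelled for nucleolin and UBF, 40 image fields per well in 384-well plates, per-cell score = nucleolin nucleolar/nucleoplasm intensity ratio divided by the matching UBF ratio.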
SMILES,nucleolar normality score (1 µM),nucleolar normality score (10 µM)
CC[C@H](NC(=O)[C@H](C)NC)C(=O)N1C[C@@H](O)C[C@H]1Cc1c(-c2[nH]c3cc(F)ccc3c2C[C@@H]2C[C@H](O)CN2C(=O)[C@H](CC)NC(=O)[C@H](C)NC)[nH]c2cc(F)ccc12 [Birinapant],inactive: 1.06,inactive: 0.936
C/C=C\c1ccc(OC)cc1 [cis-Anethole],inactive: 0.927,inactive: 0.96
O=c1cc(-c2ccccc2)oc2ccccc12 [Flavone],inactive: 1.1,inactive: 0.918
C[C@H]1[C@H](C)CC[C@]2(C(=O)O)CC[C@]3(C)C(=CC[C@@H]4[C@@]5(C)CC[C@H](O)C(C)(C)[C@@H]5CC[C@]43C)[C@H]12 [Ursolic Acid],inactive: 1.01,inactive: 0.869
NC(=O)Nc1cc(-c2cccc(F)c2)sc1C(=O)N[C@H]1CCCNC1,inactive: 1.05,inactive: 1.09
Nc1nccc(Oc2ccc(NC(=O)c3c[nH]cc(-c4ccc(F)cc4)c3=O)cc2F)c1Cl,inactive: 1.01,inactive: 1.08
Cc1nc2c(-c3cnc(N)nc3)nc(N3CCOCC3)nc2n1C(C)C,inactive: 0.974,active: 0.719
CC(C)c1ccccc1Cc1cc(C(=O)Nc2ccc(S(=O)(=O)c3ccccc3C(C)(C)C)cc2)c(O)c(O)c1O,inactive: 1.02,inactive: 1.05
CN(C)S(=O)(=O)c1ccc2c(c1)/C(=C/c1cc3c([nH]1)CCCC3)C(=O)N2,inactive: 1.08,inactive: 1.09
C[C@]12C=CC(=O)N[C@@H]1CC[C@@H]1[C@@H]2CC[C@]2(C)[C@@H](C(=O)Nc3cc(C(F)(F)F)ccc3C(F)(F)F)CC[C@@H]12 [Dutasteride],inactive: 1.03,inactive: 1.04
Nc1ccccc1NC(=O)c1cnccn1,inactive: 1.03,inactive: 1.09
COc1ccc(Cl)c(Nc2nc3ccccc3nc2NS(=O)(=O)c2cccc(NC(=O)C(C)(C)N)c2)c1 [Pilaralisib (XL147)],inactive: 0.948,inactive: 1.02
O=C(Cc1ccccc1)Nc1nnc(CCSCCc2nnc(NC(=O)Cc3ccccc3)s2)s1,inactive: 1.06,inactive: 1
Cc1cnc(Nc2ccc(OCCN3CCCC3)cc2)nc1Nc1cccc(S(=O)(=O)NC(C)(C)C)c1,inactive: 0.968,active: 0.819
CC(C)Oc1ccc(-c2cnc3c(-c4ccnc5ccccc45)cnn3c2)cc1,inactive: 0.894,inactive: 1.03
c1ccc2c(CCNc3ccc(Nc4ccncc4)cc3)c[nH]c2c1,inactive: 1.05,inactive: 1.08

# — the supplement of paper PMC10723795
